Laboratory results published in publication PMC5290273 (Nature Communications, 2017).
These are yes or no findings as the source states them, for the method shown. In cells and extracts the contact can be indirect. Some results given as binding are weak or reduced against the parent protein; the word gives no strength. Sequences can lack the tags named with a protein.

Target: T1, FLAG-AFF4 Δ970–1,163 F345D (human) (UniProt Q9UHB7)
T1 sequence: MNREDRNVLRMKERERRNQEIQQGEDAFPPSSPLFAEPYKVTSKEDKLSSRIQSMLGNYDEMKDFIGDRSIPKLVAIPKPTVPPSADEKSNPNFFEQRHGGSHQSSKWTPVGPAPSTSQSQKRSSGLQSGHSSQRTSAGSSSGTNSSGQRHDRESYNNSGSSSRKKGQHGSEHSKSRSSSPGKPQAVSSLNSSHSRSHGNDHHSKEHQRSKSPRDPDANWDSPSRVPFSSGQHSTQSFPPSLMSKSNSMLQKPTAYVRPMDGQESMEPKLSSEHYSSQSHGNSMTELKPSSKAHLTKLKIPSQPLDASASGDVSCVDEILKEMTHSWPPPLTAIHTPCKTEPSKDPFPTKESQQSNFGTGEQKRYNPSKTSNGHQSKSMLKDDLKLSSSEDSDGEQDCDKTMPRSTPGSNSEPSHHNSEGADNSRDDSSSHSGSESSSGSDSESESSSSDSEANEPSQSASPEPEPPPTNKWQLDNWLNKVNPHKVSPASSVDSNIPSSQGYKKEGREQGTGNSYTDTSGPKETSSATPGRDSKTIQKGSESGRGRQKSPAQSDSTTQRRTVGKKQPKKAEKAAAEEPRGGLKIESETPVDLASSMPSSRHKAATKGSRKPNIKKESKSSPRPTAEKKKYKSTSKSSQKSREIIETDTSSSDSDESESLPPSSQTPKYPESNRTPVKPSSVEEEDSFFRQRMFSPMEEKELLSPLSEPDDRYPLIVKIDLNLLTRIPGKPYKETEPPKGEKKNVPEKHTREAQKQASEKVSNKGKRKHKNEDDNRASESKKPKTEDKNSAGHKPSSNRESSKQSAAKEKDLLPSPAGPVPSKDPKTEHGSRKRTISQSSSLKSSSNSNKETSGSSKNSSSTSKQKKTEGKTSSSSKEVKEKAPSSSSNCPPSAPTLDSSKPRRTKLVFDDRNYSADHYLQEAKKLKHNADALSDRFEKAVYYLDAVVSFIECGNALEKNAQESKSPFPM
Assay: co-IP

binding: binds
B1: ELL1, endogenous (protein, UniProt P55199 1-621)
chain: MAALKEDRSYGLSCGRVSDGSKVSVFHVKLTDSALRAFESYRARQDSVSLRPSIRFQGSQGHISIPQPDCPAEARTFSFYLSNIGRDNPQGSFDCIQQYVSSHGEVHLDCLGSIQDKITVCATDDSYQKARQSMAQAEEETRSRSAIVIKAGGRYLGKKVQFRKPAPGATDAVPSRKRATPINLASAIRKSGASAVSGGSGVSQRPFRDRVLHLLALRPYRKAELLLRLQKDGLTQADKDALDGLLQQVANMSAKDGTCTLQDCMYKDVQKDWPGYSEGDQQLLKRVLVRKLCQPQSTGSLLGDPAASSPPGERGRSASPPQKRLQPPDFIDPLANKKPRISHFTQRAQPAVNGKLGVPNGREALLPTPGPPASTDTLSSSTHLPPRLEPPRAHDPLADVSNDLGHSGRDCEHGEAAAPAPTVRLGLPLLTDCAQPSRPHGSPSRSKPKKKSKKHKDKERAAEDKPRAQLPDCAPATHATPGAPADTPGLNGTCSVSSVPTSTSETPDYLLKYAAISSSEQRQSYKNDFNAEYSEYRDLHARIERITRRFTQLDAQLRQLSQGSEEYETTRGQILQEYRKIKKTNTNYSQEKHRCEYLHSKLAHIKRLIAEYDQRQLQAWP
